Test results published in the supplement of paper PMC12067230.
This is a noisy data set.

Test: amyloid nucleation score relative to library mode (yeast Sup35 reporter selection) (log enrichment difference); higher = more amyloid nucleation; sequences are the first 22 residues of the Bri2 peptide extended by up to 12 random residues
Settings: random library (experiment): 2;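 active = nucleation score significantly above 0 at FDR 0.05; inactive = not significantly above 0 or absent from output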
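Also: [psi-pin-] Saccharomyces cerevisiae expressing SupN fusions, induced by 100 µM Cu2SO4, selected 7 d at 30 °C without adenine and uracil, scored by deep sequencing of output versus input.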

Sequence | amyloid nucleation score
EASNCFAIRHFENKFAVETLICMRLS | inactive
EASNCFAIRHFENKFAVETLICMRMEYSVLGLRL | inactive
EASNCFAIRHFENKFAVETLICMRRIMYLRFRGS | -0.122
EASNCFAIRHFENKFAVETLICMRRKSSAVTVQV | 0.598
EASNCFAIRHFENKFAVETLICMRRNVQGYGKS | 0.315
EASNCFAIRHFENKFAVETLICMRRRRDSDST | -0.174
EASNCFAIRHFENKFAVETLICMRRSVPITACGI | inactive
EASNCFAIRHFENKFAVETLICMRRTLIVSTYAV | 0.47
EASNCFAIRHFENKFAVETLICMRVNHDATICAW | inactive
EASNCFAIRHFENKFAVETLICMSFNK | 7.51
EASNCFAIRHFENKFAVETLICMSGM | inactive
EASNCFAIRHFENKFAVETLICMSH | inactive
EASNCFAIRHFENKFAVETLICMSHFCFMWFLDY | inactive
EASNCFAIRHFENKFAVETLICMSIIVLSYSNLM | inactive
EASNCFAIRHFENKFAVETLICMSKLMSF | inactive
EASNCFAIRHFENKFAVETLICMSKSSRMSMEGQ | 3.94
EASNCFAIRHFENKFAVETLICMSLCSQVVLVGV | -0.174
EASNCFAIRHFENKFAVETLICMSLF | 8.53
EASNCFAIRHFENKFAVETLICMSLFQDKASMSE | inactive
EASNCFAIRHFENKFAVETLICMSLMPNRFHLKV | inactive
EASNCFAIRHFENKFAVETLICMSMFLCVVRRLQ | -0.0198
EASNCFAIRHFENKFAVETLICMSMWVGVAFWGI | inactive
EASNCFAIRHFENKFAVETLICMSRD | 4.12
EASNCFAIRHFENKFAVETLICMSRISFRFMGSC | inactive
EASNCFAIRHFENKFAVETLICMSRQCGFLVMGM | inactive
EASNCFAIRHFENKFAVETLICMSSA | inactive

Same assay, conditions: random library (experiment): 3

Sequence | amyloid nucleation score
EASNCFAIRHFENKFAVETLICMPCLVLAGGYWG | 0.693
EASNCFAIRHFENKFAVETLICMPEGVLPACQCR | inactive
EASNCFAIRHFENKFAVETLICMPLFRGQNQEYD | 7.43
EASNCFAIRHFENKFAVETLICMPNVC | 5.02
EASNCFAIRHFENKFAVETLICMPRVLKDHWWDE | 3.56
EASNCFAIRHFENKFAVETLICMPSCTRLHAFWR | 2.15
EASNCFAIRHFENKFAVETLICMPWERL | 3.53
EASNCFAIRHFENKFAVETLICMQMMHVYRIHIN | inactive
EASNCFAIRHFENKFAVETLICMQRLVRGWPGYD | inactive
EASNCFAIRHFENKFAVETLICMQV | inactive
EASNCFAIRHFENKFAVETLICMQVYSVCGPGGH | 3.3
EASNCFAIRHFENKFAVETLICMQWPLSRRVWLA | inactive
EASNCFAIRHFENKFAVETLICMRCMGL | 4.96
EASNCFAIRHFENKFAVETLICMRDGCFHPWGPQ | 5.52
EASNCFAIRHFENKFAVETLICMRDSLQHGHVWR | inactive
EASNCFAIRHFENKFAVETLICMREVNISFLSRP | 5.18
EASNCFAIRHFENKFAVETLICMRFGSRAPGWIW | 5.26

Sequence | amyloid nucleation score
EASNCFAIRHFENKFAVETLICMRGMLMIGGKSE | inactive
EASNCFAIRHFENKFAVETLICMRQSRRCWTPVW | inactive
EASNCFAIRHFENKFAVETLICMRRFYWDGPAAC | 0.941
EASNCFAIRHFENKFAVETLICMRRRR | inactive
EASNCFAIRHFENKFAVETLICMRSGELRSGVVT | 0.758
EASNCFAIRHFENKFAVETLICMRTCVVCPGGCV | inactive
EASNCFAIRHFENKFAVETLICMRTGE | inactive
EASNCFAIRHFENKFAVETLICMRTS | 0.461
EASNCFAIRHFENKFAVETLICMSAFVGL | 4.23
EASNCFAIRHFENKFAVETLICMSASEQGGKLSE | -0.378
EASNCFAIRHFENKFAVETLICMSCRHVK | 1.89
EASNCFAIRHFENKFAVETLICMSGERVRQQVRW | 3.33
EASNCFAIRHFENKFAVETLICMSKGWAEPWRGL | 4.93
EASNCFAIRHFENKFAVETLICMSNVYRVISVMW | inactive
EASNCFAIRHFENKFAVETLICMSPEVVE | inactive
EASNCFAIRHFENKFAVETLICMSQLGRAKKA | inactive
EASNCFAIRHFENKFAVETLICMSSFSMRPWVCV | inactive
